In the supplement of paper PMC3334620:
The full ranking holds about 33,000 sequences; the median of “E-score (-0.5 to 0.5)” is about -0.017, and the highest 2% start at about 0.3. Some of the results follow.

Target: T1, Sut1 (UniProt P53032)
T1 sequence: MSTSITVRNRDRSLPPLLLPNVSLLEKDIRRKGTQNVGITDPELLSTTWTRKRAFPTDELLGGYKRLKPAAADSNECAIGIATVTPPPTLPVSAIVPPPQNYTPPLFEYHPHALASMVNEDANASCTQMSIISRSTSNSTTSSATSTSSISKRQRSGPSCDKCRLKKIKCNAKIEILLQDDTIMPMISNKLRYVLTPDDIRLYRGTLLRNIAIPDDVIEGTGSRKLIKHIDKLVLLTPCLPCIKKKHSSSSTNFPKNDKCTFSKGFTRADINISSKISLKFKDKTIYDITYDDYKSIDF
Assay: PBM E-score (8-mer binding enrichment) (E-score (-0.5 to 0.5)); higher = stronger / more preferred TF binding; most listed sequences are background and not binding sites
Details: protein concentration: 200 nM; construct: GST-full length
Description: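 Universal 'all 10-mer' protein binding microarrays (Agilent AMADID 015681) probed with GST-tagged S. cerevisiae TFs (full-length or DBD) made by in vitro transcription/translation (PURExpress), about 100-200 nM. Bound TF was detected with fluorescent anti-GST. Each ungapped 8-mer (which stands for itself and its reverse complement) is scored by the PBM enrichment score (E-score), a modified Wilcoxon-Mann-Whitney statistic from -0.5 to +0.5, computed with the Universal PBM Analysis Suite. Scale: above 0.35 generally sequence-specific binding.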

Sequence	PBM E-score
ACTTGGAT	0.109
GGATAGGA	-0.0216
TGAGTAAA	0.0705
TTAAATAA	0.259
ACAAGGCG	-0.0134
TCGCGCAA	0.00429
ATCCGTAA	0.183
CGTGGAGC	-0.031
CAGGAATG	-0.191
AACACATT	0.149
CAACACTA	0.136
ACTATGCT	0.0189
GAAATGGA	-0.0628
AGTTGTCG	0.0993
ACCCGCGA	-0.185
AGATGTCG	-0.00069
AACTCGGG	-0.135
CCTAAGAC	-0.174
AGGCGGCA	-0.147
GGCAACCC	-0.149
CATGGTCG	-0.0254
CATTCATA	0.175
ACCCTAAG	-0.043
AGTCTCGC	-0.00891
CTAGGGCA	-0.186

Sequence	PBM E-score
TAGGTGAA	0.0665
ATGTGTTA	0.218
CTCCCCAG	-0.385
AAAGCCTA	-0.0556
TCTCTTCA	0.0405
CGCGTAAA	0.0235
GCGACCAA	0.13
AACGGCAA	-0.00689
GAATCCTA	0.191
ATGCATCC	0.114
CCCGGTAC	-0.128
ATGCATAA	0.155
CCTGCACA	-0.182
CTTGGTGC	-0.165
CAAACATG	-0.0582
ACCTTGGC	-0.142
TGCGTCCA	-0.137
AGTTCGTA	0.0376
AGCCAAAA	0.104
ACGTCGTC	-0.163
CACAATAC	-0.104
CTTGGTTC	0.0679
CTTCCGCA	0.0462
CTATGGAA	0.0576
CGAGTGGC	-0.155

Sequence	PBM E-score
ACATATCA	0.221
CTGGAAAG	-0.209
AAGCCGGG	-0.113
TCCCTACA	-0.012
AAAGGGGC	-0.00804
GAATACCA	0.0475
GTAGGAAC	-0.074
CGTTGTGA	-0.144
CGGCATAA	0.0597
GACTATGA	0.165
CCCAAGTC	-0.145
CACAGAAA	0.0833
CCTCTCAC	-0.175
GAAACGCA	0.026
TTAACCAA	0.105
CTGCCTCC	-0.178
CTCAGGGC	-0.294
ATCTTCAT	0.085
CTTGTTTC	0.0336
GATGAACA	0.0811
ACCCTCTA	-0.245
AACGACAC	0.106
ATCCGGAA	0.303
ATAGTCCC	-0.206
CATCTTTA	-0.0174

Sequence	PBM E-score
AAAATTAT	0.351
AACTGCGT	-0.0565
ACATGGAT	-0.0533
GCACTAGA	-0.132
ATCAGAGC	-0.0648
CTAGCCCC	-0.155
ATACGTTA	0.127
AACGATAG	-0.00337
CCTCGTGC	-0.256
GCTTAGCA	0.0681
ACTCATAG	0.0406
CAAGCGAC	-0.181
CCTCGGAA	0.215
CTCAATAA	-0.0175
TCAACACA	0.186
AGTCCAAT	0.0933
TACCGTAA	0.198
GCGCGGCA	-0.114
AGGGCACG	-0.298
AAAGGGTC	0.0631
GCTATCGA	-0.0248
CTCCTCAC	-0.202
GTAGTCCA	-0.0313
GCTGTAAA	-0.0202
ATCGCAGC	-0.147

Sequence	PBM E-score
CCGGCAGC	-0.0612
AGGCTCCG	0.357
AAACGGGG	0.0944
ATACACAA	0.166
CGTCTGGC	0.0238
CTACGCAG	-0.104
CACCAACA	-0.0378
AGGTACAG	-0.198
AGTGGCTC	-0.122
CATCTGTA	-0.0504
AAGAACTA	0.132
TAGAAACA	0.142
TCGAGTCA	-0.161
GATATTGA	0.234
GTCGCCAA	-0.119
GAATTTAA	0.134
TCACAACA	0.112
CCACTCAA	0.0739
CCGCCTGC	-0.3
ATATGACA	0.123
ATGTTGGG	-0.182
CATGGCGA	-0.149
CTACCACA	-0.113
CGGGTTCC	-0.022
AACTGAAC	0.16

Sequence	PBM E-score
TACAGCAA	0.0592
AACCCTTA	0.0433
AGGAAGGA	-0.258
CATAAAAC	0.135
CCAGCTGA	-0.0817
GGGGGAGA	-0.1
ACACCTTC	-0.0207
GCTAGGCA	-0.269
ATTCGACA	0.0131
AGCCGCGG	-0.0103
AGGACGGC	-0.193
CTCGTCAG	-0.237
ACATGCCA	0.0142
CCGCTCTC	-0.0819
AAATTAGG	0.231
AGGACTAC	-0.118
ACCCAGAA	0.0581
AATAATTC	0.268
ATCCCTGC	-0.22
ATAATGAA	0.251
GCCTCTGA	-0.292
AAGAGTCC	0.101
ATTTAGGA	0.135
CAGGCACC	-0.358
CGCCTTGC	-0.14

Sequence	PBM E-score
AGGATTTG	0.0444
TGACGTAA	0.0762
ATAGCAGG	0.0363
CGCTGTAG	-0.14
AACTCAGG	-0.135
CGTCTTAG	-0.212
AGGAGATA	-0.155
GGGCCGTA	-0.0712
GACCAGAC	-0.203
ACGCGGAG	0.362
CGGTCCCC	-0.121
GCGCGCCC	-0.153
GCGCACTA	-0.0946
ACTATTGC	0.127
CTACAACA	0.00887
AAGTGAAA	0.194
ATAGACGA	0.125
CCATGAAG	-0.00887
CTAGCCCA	-0.118
ATCAGCTA	-0.158
CGCTCACA	-0.166
AGGACCTG	-0.134
AGTTCAGA	0.0905
AGGATGTC	-0.0323
GAAACATA	0.0844

Sequence	PBM E-score
CTGGCGGA	-0.189
CGATGACA	-0.0645
ACAATAGC	0.0185
GTGCGGCA	-0.126
CCGTCTGA	-0.0521
CCGTTTGA	0.036
ACTTAAGA	0.217
GCTTACAC	-0.201
ACGTTGGG	-0.251
ATCCTGCC	-0.302
CCGCTCAC	-0.144
GGAACAAC	0.132
CCGTAACG	-0.0564
TCAGGAGA	0.0262
AACGTGTC	-0.136
GGAGAGCC	-0.289
ACGGTATA	-0.115
GAGGTAAA	0.0978
GAGGGAAC	-0.0987
GTGGCGAA	-0.115
GAACAGCA	0.0832
ACAGTCGT	-0.0727
CCGAGGAC	0.0966
GAAACGTA	0.0643
GCTCAACA	-0.0496

Sequence	PBM E-score
AAGCGACT	0.0273
ATGACAAC	0.184
GATGCGAC	-0.173
GTTTCCCA	0.0552
ACTTGCCT	-0.0394
CACGAAGC	-0.14
AAAATTCC	0.288
CGCGGCAC	-0.125
ACGGGGTA	-0.0603
ACTTCGTC	0.0543
AGTTCCGA	0.196
GCATTTGA	0.21
CCGACTTC	-0.075
TGCATAAA	0.163
AAGACTCT	-0.0107
AGGACCTC	-0.0609
GGTTGTCA	-0.119
CTAGGACA	-0.117
AAGCTTCA	-0.0716
